The values that follow come from PubChem BioAssay AID488969 (Vanderbilt High Throughput Screening Facility, 2010).

Over roughly 110,000 compounds, “z-score” has its median near -0.1; the highest 2% begin near 2. The list shows a part of the results.

The experiment has as its target Metabotropic glutamate receptor 8 (Rattus norvegicus) (UniProt P70579). As to the kind of experiment: mGluR8 Gi/Go-coupled signaling modulation – cell-based, rat, thallium flux, HTS, primary screen (AID 488969). Particulars: HEK293 rat mGluR8, GIRK (G protein-gated inwardly rectifying potassium channel) thallium flux, FluoZin2; at 10 µM; stronger effect = higher value; submaximal glutamate (EC20) added with thallium.
Sequence of UniProt P70579 (P70579 whole entry, looked up): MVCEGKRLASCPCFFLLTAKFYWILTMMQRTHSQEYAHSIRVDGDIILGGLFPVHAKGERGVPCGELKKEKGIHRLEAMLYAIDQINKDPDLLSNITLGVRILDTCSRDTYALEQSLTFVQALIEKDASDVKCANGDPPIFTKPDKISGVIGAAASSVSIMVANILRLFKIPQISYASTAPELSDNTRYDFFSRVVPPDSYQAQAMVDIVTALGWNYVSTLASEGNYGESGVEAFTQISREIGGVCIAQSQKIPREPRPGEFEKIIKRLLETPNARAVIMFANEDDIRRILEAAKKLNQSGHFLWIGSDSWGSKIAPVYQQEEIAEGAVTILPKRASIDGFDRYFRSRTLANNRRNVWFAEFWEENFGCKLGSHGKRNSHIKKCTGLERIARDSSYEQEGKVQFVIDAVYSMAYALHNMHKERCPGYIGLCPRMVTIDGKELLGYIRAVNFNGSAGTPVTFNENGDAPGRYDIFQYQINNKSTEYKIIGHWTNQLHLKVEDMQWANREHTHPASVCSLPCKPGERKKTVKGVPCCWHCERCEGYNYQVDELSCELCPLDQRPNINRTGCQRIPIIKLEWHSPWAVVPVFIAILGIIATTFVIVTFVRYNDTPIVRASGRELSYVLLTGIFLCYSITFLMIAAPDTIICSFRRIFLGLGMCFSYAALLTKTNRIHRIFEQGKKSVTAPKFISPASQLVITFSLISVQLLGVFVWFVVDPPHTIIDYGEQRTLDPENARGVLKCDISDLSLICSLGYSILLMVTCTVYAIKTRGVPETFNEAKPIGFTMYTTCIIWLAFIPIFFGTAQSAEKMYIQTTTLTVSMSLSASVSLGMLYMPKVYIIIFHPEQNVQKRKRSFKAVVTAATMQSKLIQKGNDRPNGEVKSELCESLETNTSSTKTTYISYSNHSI
For the compound `Cc1ccc(OCC(=O)N(Cc2ccccc2)C(C)C)c([N+](=O)[O-])n1`, the z-score is -0.134.

Regarding `CCOC(=O)/C=C1\SCC(=O)N1CC(=O)Nc1ccc(OC)c(OC)c1`, the z-score is -0.0598.

In turn, `Cc1ccc(NC(=O)ON=C2CCCC2)cc1` registered a z-score of -0.0815.

In turn, `Cc1cc(NCC(C)C)n2ncnc2n1` had a z-score of 0.113.

In turn, `COc1ccc(-c2nnn(CC(=O)N(C3CCCCC3)C(C)C(=O)NC3CCCC3)n2)cc1OC` (centres undefined) registered a z-score of 1.3.

Take `CCCCn1c(SCC(=O)NCc2ccco2)nnc1-c1ccoc1C`: the z-score is -0.872.

`O=C(Nc1ccccc1OC(F)F)C1CCCN1C(=O)c1cccs1` (centres undefined) came in with a z-score of -0.637.

For the compound `CCCc1nc2ccccc2c(C(=O)OCC(=O)Nc2c(C)n(C)n(-c3ccccc3)c2=O)c1CC`, the z-score was -0.454.

With `COCCn1c(SCc2nc3sc(C(=O)OC)c(C)c3c(=O)[nH]2)nc2ccccc21`, the z-score is 0.877.

`CCOC(=O)c1cnc2nc(NCc3ccc(OC)c(OC)c3)[nH]n2c1=O`: the z-score was -0.118.

The compound `CCOCCc1nnc(NC(=O)Cc2ccccc2)s1` gave a z-score of -0.126.

`COC(=O)C(NNc1ccccc1)(NC(=O)c1ccccc1F)C(F)(F)F` (centres undefined) registered a z-score of 0.148.

For `O=c1cc(NS(=O)(=O)c2ccccc2)nc(SCc2ccccc2Cl)[nH]1`, the z-score is 0.325.

`CCc1ccc(CC)c(S(=O)(=O)Nc2ccc(O)c(C(=O)O)c2)c1` displayed a z-score of 0.441.

As to `Cc1cc(/C=C2/SC(=S)N(c3cccc(C(F)(F)F)c3)C2=O)c(C)n1-c1cccnc1`, the z-score is -0.0303.

As for `Nc1ccc(NC(=O)c2ccccc2)c2c1C(=O)c1ccccc1C2=O`, the z-score came to 0.0931.

The compound `O=C(Cn1c(=O)oc2cc(S(=O)(=O)N3CCCCC3)ccc21)N1CCc2ccccc21` came in with a z-score of 0.123.

Turning to `Nc1c(C(=O)Nc2nc3ccccc3s2)sc2nc(-c3cccs3)ccc12`, the z-score came to 0.0764.

Turning to `CCCCCn1c(N)c(-c2nc3ccccc3s2)c2c([N+](=O)[O-])nn(CC)c(=O)c21`, the z-score is -0.75.

`Cc1nc(SCC(=O)N2CCN(C(=O)c3ccco3)CC2)c2c(C)c(C)sc2n1` yielded a z-score of -0.629.

As to `COc1cc(OC)c2c(C)c(Cl)c(=O)oc2c1`, the z-score amounted to 0.803.

On to `CCOC(=O)c1ccc(Nc2nc(C)cc(=O)[nH]2)cc1`, for which the z-score is 0.244.

On to `CCN(C(=O)COc1ncnc2scc(-c3ccc(F)cc3)c12)C1CCS(=O)(=O)C1` (centres undefined), for which the z-score turned out to be 0.0479.

`COc1ccc(-c2nc3ccccc3c(=O)n2CCN2CCOCC2)cc1` yielded a z-score of -0.437.

Compound `CCOC(=O)C1CCN(CCC(=O)Nc2ccc(Cl)cc2)CC1` gave a z-score of 0.215.

In turn, `CC1CCCC(N2CCN(C(=O)c3ccc(F)cc3)CC2)C1` (centres undefined) came in with a z-score of -1.76.

Compound `CCOC(=O)c1[nH]c2ccccc2c1NC(=O)c1ccc2c(c1)OCO2` gave a z-score of -0.524.

For the compound `Fc1ccc(C2CC(c3ccccc3)n3ncnc3N2)cc1` (centres undefined), the z-score was -0.277.

The compound `CCOc1ccccc1NC(=S)NC1CCCCC1` displayed a z-score of -0.129.

In the case of `N#Cc1ccsc1NC(=O)CN1CCCCC1`, the z-score was determined as 0.666.

`CCC(=O)Nc1cccc(NC(=O)c2cccc([N+](=O)[O-])c2C)c1` gave a z-score of 0.682.

The compound `CCOc1ccc2oc(-c3ccccc3)c(C(=O)O)c2c1` gave a z-score of -0.436.

`O=c1cc(O)c2c(=O)n(-c3ccccc3)c3ccccc3c2o1` registered a z-score of -0.183.

As to `Cc1c(Cl)cccc1NC(=O)c1cccc(OC(F)F)c1`, the z-score is -0.269.

For `Cn1c(=NC(=O)CSCC(=O)N2CCCCC2)sc2ccccc21`, the z-score stood at 0.77.

For the compound `CCOC(=O)N1CCN(C(=O)Cc2ccc(C)cc2)CC1`, the z-score is -0.283.

`COc1cccc(NC(=O)C(C)Oc2ccccc2)c1` (centres undefined) had a z-score of -0.519.

Take `Cc1nn(-c2ccccc2)c(C)c1NC(=O)COc1ccc(C#N)cc1`: the z-score was -0.133.

For the compound `O=C(CNc1cccc2ccccc12)N/N=C/c1cccc(Oc2ccccc2)c1`, the z-score was -0.181.

`COCCNC(=O)CS(=O)(=O)Cc1nc(-c2ccc(C)cc2)oc1C`: the z-score was -0.173.

`Cc1ccc(NC(=S)N2CCOCC2)c(C)c1`: the z-score is 0.0311.

`COc1ccc(OC)c(S(=O)(=O)N(C)CC(=O)N2CCN(c3ccc(F)cc3)CC2)c1`: the z-score is -0.0715.

In turn, `Cc1nc2ccccc2n1CC(=O)NCCN1CCOCC1` gave a z-score of 0.331.

Compound `CC(C)Cn1c(N)c(S(=O)(=O)c2cccs2)c2nc3ccccc3nc21` returned a z-score of -1.43.

In the case of `c1ccc(N2CCN(c3ccccc3)C2c2cccnc2)cc1`, the z-score was -0.375.

`CCOC(=O)c1cc2sc(C)cc2n1CCCN1C(=O)c2ccccc2C1=O` registered a z-score of 0.136.

In turn, `COc1ccc(C(=O)N2N=C(c3cccc(OC)c3)CC2(O)C(F)(F)F)cc1` (centres undefined) displayed a z-score of 0.326.

For `COc1ccc(NC(=O)CC2C(=O)N(c3ccc(OC)cc3)C(=O)N2CCc2cccs2)cc1` (centres undefined), the z-score was -0.146.

For the compound `COc1ccc(/C=N/NC(N)=S)cc1OC(=O)c1ccccc1`, the z-score was -0.441.

In the case of `COc1ccc2c(c1)N(C)/C(=C1/SC(=NCc3ccccc3)N(c3ccccc3)C1=O)S2`, the z-score was -0.131.

As for `O=C(Nc1ccccn1)C(F)(F)C(F)(F)C(F)(F)C(F)(F)C(=O)Nc1ccccn1`, the z-score is 0.103.

As to `Cc1cc(C(=O)NCc2cc(C)n(C)n2)sc1-c1ccccc1`, the z-score is -0.62.

As for `O=C(NC(=S)Nc1ccccn1)c1cncc(Br)c1`, the z-score amounted to 0.829.

Compound `O=C(c1ccccc1)c1cccc(NC(=O)c2ccc(Br)o2)c1` showed a z-score of -0.711.

Consider `O=C(NCCc1cccs1)C1CC(c2cccc([N+](=O)[O-])c2)=NO1` (centres undefined), for which the z-score was -0.00027.

`COc1ccc(-c2cc(-c3n[nH]c(=S)n3-c3ccccc3OC)[nH]n2)cc1` came in with a z-score of -0.592.

Take `CCOc1ccc(N/C=C\C(=O)c2ccc3c(c2)OCO3)cc1`: the z-score is -0.114.

As for `CC(C)CNC(=S)Nc1ccccc1F`, the z-score is -0.197.

Take `CCS(=O)(=O)N1CCC(C(=O)NCc2cccnc2)CC1`: the z-score was 0.0787.

Compound `O=C(Cn1c(=O)oc2cc(S(=O)(=O)N3CCCCC3)ccc21)N1CCc2ccccc2C1` showed a z-score of 0.0243.

`COc1ccc(/C=C/C(=O)c2ccc3c(c2)OCCO3)cc1[N+](=O)[O-]` registered a z-score of 0.373.

On to `O=C(NC12CC3CC(CC(C3)C1)C2)C12CC3CC(C1)CC(n1cnc(Cl)n1)(C3)C2`, for which the z-score turned out to be 0.0163.

As to `COc1ccc(NC(=O)c2cc3c(-c4ccc(OC)c(OC)c4)nn(C)c3s2)cc1OC`, the z-score was -0.137.

On to `CC1CCCN(C(=O)CSCC(=O)N=c2sc3ccccc3n2C)C1` (centres undefined), for which the z-score was -0.635.

As for `C=CCn1c(CCNC(=O)c2ccc(Cl)c(Cl)c2)nnc1SCCOc1ccc(OC)cc1`, the z-score was -0.286.

In turn, `COc1cc(OC)cc(C(=O)NC(C(=O)NCCN(C)C)C23CC4CC(CC(C4)C2)C3)c1` (centres undefined) returned a z-score of 0.208.

`CN(C)c1ccc(/C=C2\CCC/C(=C\c3ccccc3)C2=O)cc1`: the z-score was -0.296.

For the compound `CC1=C(C(=O)OCC(C)C)C23C(=O)c4ccccc4C2(O1)OC(N)=C3C#N` (centres undefined), the z-score is -1.58.

For `CCCOc1ccccc1C1CC(=O)Nc2cc3c(cc21)OCO3` (centres undefined), the z-score was -0.289.

In turn, `Cn1c2ccccc2c(=O)c2c(=O)n(C3CCCCC3)c(-c3ccco3)nc21` yielded a z-score of -0.509.

Consider `O=C(c1cnccn1)N1CCN(c2ccccc2F)CC1`, for which the z-score is -0.267.

Compound `C/C(=N\N=C1/NC(=O)C(C)S1)c1ccc([N+](=O)[O-])cc1` (centres undefined) displayed a z-score of -0.238.

`NC(=O)COC(=O)c1cc(S(=O)(=O)N2CCOCC2)ccc1N1CCCCC1` displayed a z-score of -0.0501.

Compound `CC(=O)c1ccc(N2CCN(C(=O)CCCn3c(=S)[nH]c4cc5c(cc4c3=O)OCO5)CC2)cc1` gave a z-score of 2.56.

`CCc1c(C)sc(NC(=O)c2ccco2)c1C(=O)N1CCOCC1` returned a z-score of 1.29.

Turning to `COc1ccc(S(=O)(=O)Nc2ccc(Cl)cn2)c(C)c1C`, the z-score was -0.798.

With `Cc1csc(NC(=O)c2cc3c(s2)CCCC3)n1`, the z-score is -0.76.

For the compound `CC(=O)N1C(C)c2ccccc2C(C)(C)CC12CCCCC2` (centres undefined), the z-score is -0.408.

`CCOC(=O)N1CCC(NC(=O)CS(=O)(=O)Cc2nc(-c3ccc(C)cc3)oc2C)CC1`: the z-score was -0.301.

Compound `CCOC(=O)N1CCN(C(=O)c2ccc(-n3c(=S)[nH]c4ccccc4c3=O)cc2)CC1` registered a z-score of -0.193.

The compound `Cc1cc(C)c(C)c(S(=O)(=O)NCc2ccco2)c1C` displayed a z-score of 0.675.

`CCOc1ccc(/C=N/OCC(=O)NCc2ccc3c(c2)OCO3)cc1OC` had a z-score of 0.208.

In turn, `Cc1ccc(OCC(=O)Nc2ccccc2-c2ccccc2NC(=O)COc2ccc(C)cc2)cc1` returned a z-score of 0.0801.

`Oc1c(C=Nc2cccnc2)sc2ccccc12` showed a z-score of -0.313.

`CC1Oc2ccccc2N(CC(=O)NCCc2ccccc2)C1=O` (centres undefined) gave a z-score of 2.08.

Take `Cc1ccc(-n2ncc3c(=O)n(CC#N)cnc32)cc1C`: the z-score amounted to 0.124.

The compound `COc1ccc(C(=O)Nc2ccc([N+](=O)[O-])cn2)cc1OC` had a z-score of -0.261.

Compound `C=CCC(O)(CCN1CCCCC1)c1ccccc1` (centres undefined) showed a z-score of 0.382.

Consider `COc1ccc(-c2coc3cc4oc(=O)cc(-c5ccccc5)c4cc23)cc1F`, for which the z-score is -0.146.

Turning to `COc1ccccc1-c1cc(C(F)(F)F)nc(S(=O)(=O)CCCC(=O)N2CCOCC2)n1`, the z-score was -0.331.

`O=C(CSc1ccc(-c2nc3ccccc3[nH]2)cn1)Nc1ccc(S(=O)(=O)NC2CC2)cc1` displayed a z-score of -0.167.

Compound `CCN(CC)C(=O)Nc1c(C)n(C)n(-c2ccccc2)c1=O` yielded a z-score of -0.0603.

`Cc1ccc(S(=O)(=O)CC2CSc3nnc(C)c(=O)n32)cc1` (centres undefined) showed a z-score of 0.000957.

For the compound `OCCNc1nc2ccccc2n1CCN1CCCCC1`, the z-score was -0.0913.

Take `Cc1onc(-c2ccccc2Cl)c1C(=O)N1C=CC(C(F)(F)F)=NCC1`: the z-score turned out to be 0.16.

`Cc1ccc(S(=O)(=O)N2CCC(C(=O)Nc3nnc(C45CC6CC(CC(C6)C4)C5)s3)CC2)cc1` yielded a z-score of 0.299.

Regarding `Cn1cnnc1SCC(=O)N1CCc2ccccc21`, the z-score was 0.101.

`O=C(CNc1n[nH]c(=O)[nH]c1=O)N/N=C/c1cccnc1` returned a z-score of -0.114.

Regarding `O=C(N/N=C/c1ccco1)C1CC1(c1ccccc1)c1ccccc1` (centres undefined), the z-score stood at 1.35.

Regarding `CNc1oc(-c2ccccc2Cl)nc1C#N`, the z-score was -0.539.

As for `O=C(NCCc1ccc(Cl)cc1)Nc1cccc(Cl)c1`, the z-score was determined as 0.529.

Consider `CCC1C(=O)N=C(SCC(=O)Nc2ccc(C(=O)OC)cc2)NC1=O` (centres undefined), for which the z-score was found to be 0.238.

`O=C(COC(=O)C1CCCN1C(=O)c1cccs1)Nc1ccc2c(c1)OCO2` (centres undefined) showed a z-score of 0.489.

Turning to `CCc1c(C)sc(NC(=O)c2cc(-c3ccco3)on2)c1C#N`, the z-score was 0.805.

The compound `CC1CCCCN1C(=O)C12CCC(C)(/C(=N/O)C1)C2(C)C` (centres undefined) had a z-score of 0.611.

`O=C(NCCO)c1ccc2[nH]c3c(c2c1)CCCC3` gave a z-score of -0.308.

`CCC(C)(C)NC(=O)Cc1ccc(C)cc1` showed a z-score of 0.28.

The compound `CC1CCN(S(=O)(=O)c2cccc(-c3cn4cc(Cl)ccc4n3)c2)CC1` came in with a z-score of -0.297.

`CC(=O)c1cc(C#N)c(Oc2ccc(Cl)cc2Cl)nc1C`: the z-score worked out at 0.172.
